# Laboratory results: the supplement of paper PMC6089552
# Out of some 3,200 compounds screened, about 300 (9.4%) showed activity. The list shows a part of the results, in another mix than the full data.
# Test system: A673/TR/shEF
# Assay: cell viability (LOESS-normalised, relative to median of negative controls) (log2 ratio); higher = more viable cells (less compound effect), active = hit call of the paper (over 3 MAD below the median)
# Conditions: treatment time: 72 h
# How it was run: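 Viability of A673/TR/shEF Ewing sarcoma cells was determined by CellTiter-Glo luminescence. The cells, at 1,500 per well in 384-well plates, were grown with or without doxycycline from 24 h before compound addition to switch on EWS-FLI1 shRNA knockdown, then exposed for three days to library compounds at two or more concentrations or to DMSO controls. Signals were LOESS-corrected plate by plate, normalised to the negative-control median and log2-transformed.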
# [1] = 0.25 µM, library screen: screen1, EWS-FLI1 expression: high (no doxycycline)
# [2] = 0.25 µM, library screen: screen1, EWS-FLI1 expression: low (doxycycline-induced shRNA knockdown)
# [3] = 2.5 µM, library screen: screen1, EWS-FLI1 expression: high (no doxycycline)
# [4] = 2.5 µM, library screen: screen1, EWS-FLI1 expression: low (doxycycline-induced shRNA knockdown)
# [5] = 0.25 µM, library screen: screen2, EWS-FLI1 expression: high (no doxycycline)
# [6] = 0.25 µM, library screen: screen2, EWS-FLI1 expression: low (doxycycline-induced shRNA knockdown)
# [7] = 2.5 µM, library screen: screen2, EWS-FLI1 expression: high (no doxycycline)
# [8] = 2.5 µM, library screen: screen2, EWS-FLI1 expression: low (doxycycline-induced shRNA knockdown)
# [9] = 2.8 µM, library screen: screen3, EWS-FLI1 expression: high (no doxycycline)
# [10] = 2.8 µM, library screen: screen3, EWS-FLI1 expression: low (doxycycline-induced shRNA knockdown)
# [11] = 8.3 µM, library screen: screen3, EWS-FLI1 expression: high (no doxycycline)
# [12] = 8.3 µM, library screen: screen3, EWS-FLI1 expression: low (doxycycline-induced shRNA knockdown)
# [13] = 25 µM, library screen: screen3, EWS-FLI1 expression: high (no doxycycline)
# [14] = 25 µM, library screen: screen3, EWS-FLI1 expression: low (doxycycline-induced shRNA knockdown)
compound,measurement,setting,value
COC(=O)[C@@H]1OC(=O)[C@H]2O[C@@]23[C@@]1(C)CCC1[C@@]2(C)CCC(=O)C(C)(C)C2C[C@@H](OC(C)=O)[C@]13C (stereo not given in full),cell viability (log2),[1],inactive: -0.0129
same,cell viability (log2),[2],inactive: 0.0628
same,cell viability (log2),[3],inactive: 0.0436
same,cell viability (log2),[4],inactive: 0.0683
O=c1[nH]c(=O)n([C@H]2C[C@H](O)[C@@H](CO)O2)cc1Br,cell viability (log2),[5],inactive: 0.238
same,cell viability (log2),[6],inactive: 0.0517
same,cell viability (log2),[7],inactive: 0.037
same,cell viability (log2),[8],inactive: 0.0646
CCCCC1(COC(=O)CCC(=O)O)C(=O)N(c2ccccc2)N(c2ccccc2)C1=O,cell viability (log2),[1],inactive: 0.0732
same,cell viability (log2),[2],inactive: 0.0441
same,cell viability (log2),[3],inactive: 0.13
same,cell viability (log2),[4],inactive: 0.0685
COc1cc(NC(C)CCCN)c2ncccc2c1 (stereo not given),cell viability (log2),"0.025 µM, library screen: screen2, EWS-FLI1 expression: high (no doxycycline)",inactive: 0.0561
same,cell viability (log2),"0.025 µM, library screen: screen2, EWS-FLI1 expression: low (doxycycline-induced shRNA knockdown)",inactive: -0.00137
same,cell viability (log2),[1],inactive: 0.054
same,cell viability (log2),[2],inactive: 0.199
same,cell viability (log2),[5],inactive: 0.0891
same,cell viability (log2),[6],inactive: 0.0483
same,cell viability (log2),[3],inactive: 0.127
same,cell viability (log2),[4],inactive: 0.305
same,cell viability (log2),[7],inactive: 0.104
same,cell viability (log2),[8],inactive: -0.00544
same,cell viability (log2),"25 µM, library screen: screen2, EWS-FLI1 expression: high (no doxycycline)",active: -0.632
same,cell viability (log2),"25 µM, library screen: screen2, EWS-FLI1 expression: low (doxycycline-induced shRNA knockdown)",inactive: -0.0311
CCCCNc1c(C(=O)OCC)c(C)nc2c1cnn2CC,cell viability (log2),[5],inactive: 0.228
same,cell viability (log2),[6],inactive: 0.0905
same,cell viability (log2),[7],inactive: 0.218
same,cell viability (log2),[8],inactive: 0.0802
Nc1ccc(CCNc2ncnc3c2ncn3C2OC(CO)C(O)C2O)cc1 (stereo not given),cell viability (log2),[5],inactive: 0.0842
same,cell viability (log2),[6],inactive: 0.129
same,cell viability (log2),[7],inactive: 0.0506
same,cell viability (log2),[8],inactive: 0.076
COc1ccc(-c2ccc3c(N4CCOCC4)nc(N4C[C@@H](C)O[C@@H](C)C4)nc3n2)cc1CO,cell viability (log2),[9],active: -0.379
same,cell viability (log2),[10],active: -0.377
same,cell viability (log2),[11],active: -0.748
same,cell viability (log2),[12],active: -0.617
same,cell viability (log2),[13],active: -1.51
same,cell viability (log2),[14],active: -1.39
COC1(C)CCC2OC2(C)CCC2C1CC2(C)C (stereo not given),cell viability (log2),[1],inactive: 0.0896
same,cell viability (log2),[2],inactive: -0.07
same,cell viability (log2),[3],inactive: 0.0457
same,cell viability (log2),[4],inactive: 0.0229
OC[C@H]1O[C@@H](n2cnc3c(Nc4ccccc4)ncnc32)[C@H](O)[C@@H]1O,cell viability (log2),[5],inactive: 0.163
same,cell viability (log2),[6],inactive: 0.111
same,cell viability (log2),[7],inactive: 0.125
same,cell viability (log2),[8],inactive: 0.0991
OC(CN1CCN(c2cccc(Cl)c2)CC1)C(c1ccccc1)c1ccccc1 (stereo not given),cell viability (log2),[5],inactive: 0.185
same,cell viability (log2),[6],inactive: 0.112
same,cell viability (log2),[7],inactive: 0.133
same,cell viability (log2),[8],inactive: 0.0821
CC1=C(/C=C/C(C)=C/C=C/C(C)=C\C(=O)O)C(C)(C)CCC1,cell viability (log2),"0.103 µM, library screen: screen3, EWS-FLI1 expression: high (no doxycycline)",inactive: -0.0999
same,cell viability (log2),"0.103 µM, library screen: screen3, EWS-FLI1 expression: low (doxycycline-induced shRNA knockdown)",inactive: 0.0846
same,cell viability (log2),[1],inactive: 0.069
same,cell viability (log2),[2],inactive: 0.0494
same,cell viability (log2),[5],inactive: 0.237
same,cell viability (log2),[6],inactive: 0.122
same,cell viability (log2),"0.308 µM, library screen: screen3, EWS-FLI1 expression: high (no doxycycline)",inactive: -0.0483
same,cell viability (log2),"0.308 µM, library screen: screen3, EWS-FLI1 expression: low (doxycycline-induced shRNA knockdown)",inactive: 0.00696
same,cell viability (log2),"0.926 µM, library screen: screen3, EWS-FLI1 expression: high (no doxycycline)",inactive: -0.0359
same,cell viability (log2),"0.926 µM, library screen: screen3, EWS-FLI1 expression: low (doxycycline-induced shRNA knockdown)",inactive: 0.0254
same,cell viability (log2),[3],inactive: 0.0686
same,cell viability (log2),[4],inactive: 0.173
same,cell viability (log2),[7],inactive: 0.194
same,cell viability (log2),[8],inactive: 0.208
same,cell viability (log2),[9],inactive: -0.0341
same,cell viability (log2),[10],inactive: -0.000497
same,cell viability (log2),[11],inactive: -0.0809
same,cell viability (log2),[12],inactive: 0.0528
same,cell viability (log2),[13],inactive: -0.0656
same,cell viability (log2),[14],inactive: 0.0248
